Experimental data reported in the supplement of paper PMC3334620.
The full ranking holds about 33,000 sequences; the median of “E-score (-0.5 to 0.5)” is about -0.043, and the highest 2% start at about 0.37. This is one part of the list.

Molecular target: T1, Upc2 (UniProt Q12151)
T1 sequence: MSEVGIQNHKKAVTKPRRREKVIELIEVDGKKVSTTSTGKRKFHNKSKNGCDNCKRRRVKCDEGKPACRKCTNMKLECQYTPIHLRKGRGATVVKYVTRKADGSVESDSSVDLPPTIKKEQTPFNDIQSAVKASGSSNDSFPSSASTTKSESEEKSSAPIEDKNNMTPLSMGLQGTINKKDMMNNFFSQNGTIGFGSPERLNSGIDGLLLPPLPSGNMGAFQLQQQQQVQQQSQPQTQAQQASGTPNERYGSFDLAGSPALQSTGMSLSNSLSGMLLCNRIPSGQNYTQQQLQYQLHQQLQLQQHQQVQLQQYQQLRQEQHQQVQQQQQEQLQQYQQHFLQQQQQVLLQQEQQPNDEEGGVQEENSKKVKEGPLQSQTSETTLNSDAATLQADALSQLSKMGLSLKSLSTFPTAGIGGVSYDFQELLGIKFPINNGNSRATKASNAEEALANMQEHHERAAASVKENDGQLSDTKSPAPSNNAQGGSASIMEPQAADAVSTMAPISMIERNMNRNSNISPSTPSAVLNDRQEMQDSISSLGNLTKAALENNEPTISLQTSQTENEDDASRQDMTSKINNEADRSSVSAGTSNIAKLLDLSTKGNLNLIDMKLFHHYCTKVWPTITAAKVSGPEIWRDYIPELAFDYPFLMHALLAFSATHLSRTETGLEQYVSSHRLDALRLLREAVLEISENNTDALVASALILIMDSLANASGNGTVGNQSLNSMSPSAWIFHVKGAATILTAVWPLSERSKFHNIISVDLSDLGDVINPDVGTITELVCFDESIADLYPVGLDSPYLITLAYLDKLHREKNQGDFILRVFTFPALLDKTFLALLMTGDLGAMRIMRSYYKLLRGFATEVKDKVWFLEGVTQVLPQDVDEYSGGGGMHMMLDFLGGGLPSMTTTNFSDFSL
Assay: PBM E-score (8-mer binding enrichment) (E-score (-0.5 to 0.5)); higher = stronger / more preferred TF binding; most listed sequences are background and not binding sites
Settings: protein concentration: 200 nM; construct: GST-full length
Method in brief: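 For each ungapped eight-base word taken together with its reverse complement, the Universal PBM Analysis Suite assigned an E-score. Binding data came from GST-tagged yeast transcription factors, applied at about 100-200 nM, on universal all-10-mer Agilent arrays made double-stranded by primer extension. Fluorescent anti-GST marked bound protein, and scans were normalised with masliner.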

| Sequence | PBM E-score |
| --- | --- |
| AGGGTGGC | -0.182 |
| CGCTCGAG | -0.0469 |
| CTACTCCA | -0.0741 |
| GACTGAGA | 0.0262 |
| ACTCGCCT | -0.118 |
| AACAGGAT | -0.16 |
| GGGCCAAC | -0.262 |
| CTTTGGCA | -0.148 |
| AAAAGGAA | -0.0426 |
| GACTCTGC | -0.122 |
| GGAATGTA | 0.114 |
| CTACCTAA | -0.00333 |
| AGCTGGAC | -0.129 |
| AAAACTAC | 0.137 |
| CATGGCTC | -0.0993 |
| CCCAGGGC | -0.304 |
| GGTCAAAA | -0.016 |
| CATGTGAA | -0.214 |
| CCAATGTC | -0.114 |
| ACCGGACC | 0.15 |
| CCCAACGA | 0.088 |
| ACCTTAGT | -0.0893 |
| GACGACTC | -0.052 |
| TAAGCAGA | -0.223 |
| CCAACGCA | -0.144 |

| Sequence | PBM E-score |
| --- | --- |
| AGTCGGCG | -0.179 |
| GAAGTTTA | 0.106 |
| ACTCGTGC | 0.0738 |
| GAGGGATC | -0.133 |
| ATGGCTCA | -0.1 |
| AATGTCCT | -0.151 |
| AGGTACTC | -0.029 |
| ACCTGCGG | -0.147 |
| CACGATCA | -0.0545 |
| CGCATGCC | 0.0548 |
| AGCTGAAA | 0.0112 |
| AGGACTCA | -0.0854 |
| AACCTGAC | -0.0225 |
| AGACCTCA | -0.247 |
| ACGTGTTG | 0.116 |
| CGTCCCAG | -0.321 |
| GTAGGCCA | -0.201 |
| AGATGCTC | -0.00243 |
| CAGTGGCG | -0.244 |
| CTCGCAGC | 0.0159 |
| CGACATAA | 0.186 |
| ACCGATGG | 0.132 |
| AGCTATAC | 0.309 |
| GAAGTTGC | -0.0637 |
| ATCATCCG | 0.132 |

| Sequence | PBM E-score |
| --- | --- |
| TCGGCACA | -0.183 |
| ACCCGGCT | -0.129 |
| GACGGCCC | -0.0671 |
| CCGAGTTA | 0.0371 |
| TCTGCACA | -0.141 |
| GACTGTTA | -0.182 |
| CTGTTCCA | -0.182 |
| AAGCAGGC | -0.0981 |
| AAACACTC | 0.00727 |
| AGGATCTC | -0.13 |
| CTGCACAA | -0.231 |
| CAACCGAC | 0.144 |
| AGCACACA | -0.268 |
| ATGGGTGC | -0.143 |
| CTTCGTGA | 0.112 |
| AGGAGTCC | -0.211 |
| ACATTCAC | -0.138 |
| ACGTTAAC | 0.215 |
| CGAAGATA | 0.163 |
| ATTTGATG | -0.0984 |
| ACGCTCTG | 0.0303 |
| CCACCATA | -0.103 |
| GTCTCCCA | -0.241 |
| ATTGACTA | 0.105 |
| CCAGGGAG | -0.166 |

| Sequence | PBM E-score |
| --- | --- |
| CTCTTGGA | -0.199 |
| GAAATCTC | 0.227 |
| GGCCGTCA | -0.164 |
| AGAAGGGG | -0.333 |
| CATCCTTA | -0.0613 |
| CCTGCGCG | -0.0152 |
| CCGCCTCA | -0.189 |
| ATGATATG | 0.0923 |
| GTGCACGA | 0.0639 |
| CAGAGAGG | -0.366 |
| GGAGTGAC | -0.0854 |
| CCTTCTCG | -0.115 |
| ATCACCAC | 0.0818 |
| ATAAGGGC | -0.00783 |
| ACTTAGCG | 0.0959 |
| AGGCAAAC | 0.0314 |
| GTCGAACA | 0.111 |
| ACTTTGAA | 0.0741 |
| CAGTAGTC | 0.0468 |
| CACCGCTC | -0.154 |
| ACCCTGAT | -0.168 |
| AACGATGG | 0.391 |
| ACAGAACT | -0.019 |
| AATCTAAA | -0.0794 |
| CTGATATC | -0.00928 |

| Sequence | PBM E-score |
| --- | --- |
| AGATGAGA | -0.0597 |
| GCAAGGAC | -0.135 |
| GCACCTGA | -0.236 |
| AAGACAAC | 0.0666 |
| GCGGAAAA | 0.0574 |
| AAGTCTAG | -0.0376 |
| ACCATGAC | -0.0885 |
| ACACAGTA | 0.0483 |
| ATTTGACC | 0.0348 |
| AGGTGACG | -0.152 |
| AAGAGTCG | 0.0777 |
| CCCGAGAA | -0.0906 |
| ATTGAACA | -0.0652 |
| ATACCCAG | -0.192 |
| CACGTCAC | -0.118 |
| GGGATCCA | -0.193 |
| CGTGTAGA | 0.221 |
| CAATATAA | -0.00384 |
| TGCGAGCA | 0.21 |
| CGTACGGC | 0.381 |
| ATATAACG | 0.0972 |
| ACTGTATG | 0.13 |
| CGGCCAGA | -0.139 |
| ACGGCTAG | 0.0255 |
| GGTGACTA | -0.0935 |

| Sequence | PBM E-score |
| --- | --- |
| CCTGATGC | -0.111 |
| AACCCATT | -0.0446 |
| CCCCGCAG | -0.11 |
| CCTCTATA | -0.0193 |
| ACGAAAAA | 0.262 |
| CCGGCACG | 0.0245 |
| GGGTCCCA | -0.0876 |
| CGGCTAAG | -0.099 |
| AAAGCTAG | -0.172 |
| CTCGAGGC | -0.0827 |
| CGAAGCCC | 0.0445 |
| GGCCACAA | -0.151 |
| AAGCAGTG | -0.25 |
| GAAACGGA | 0.199 |
| CGCAGGCC | -0.148 |
| CGCAGCGA | 0.0366 |
| CGCGCGTC | 0.116 |
| ATTGTCGC | -0.0879 |
| ATATGAGG | -0.253 |
| AACGCGTG | 0.179 |
| CTTCCTCC | -0.22 |
| AGGTTCAG | -0.0682 |
| CTTAAAAA | 0.0534 |
| AAGTCACC | -0.0173 |
| CTAAGCTA | 0.015 |

| Sequence | PBM E-score |
| --- | --- |
| ACTGCTCC | -0.196 |
| AGTCGGGC | 0.0212 |
| GGAGCTGA | -0.206 |
| CATGGACG | -0.144 |
| CGCGCCGC | -0.129 |
| CTGTGCCA | -0.224 |
| CGCTCCCG | 0.208 |
| ACCAACCC | -0.0466 |
| ACGTCGGA | 0.0678 |
| ACAGCTGA | -0.154 |
| AGAATTAT | -0.0708 |
| CGAAATCG | 0.0818 |
| CTTAGATC | -0.0871 |
| CTGAACAA | 0.115 |
| CCTCCGAG | -0.0728 |
| TGCAAGAA | -0.0985 |
| GAATGGAA | -0.0173 |
| GGATCGGA | 0.0439 |
| AAGGGTAA | -0.11 |
| GATGGTCA | -0.204 |
| AAATCAGG | -0.118 |
| CCAGAGGA | -0.256 |
